What was measured:
Set-up in all cases: key: --: inactive; trace
Pseudomonas aeruginosa = assay: standard disc-plate assay; conditions: conc 0.1 mg/ml; disc 6.35 mm
Method: (§1) In Table IX the standard discplate-assay activity of the A52688 factors is summarized. Activity is measured as the diameter (in mm) of the observed zone of inhibition; the diameter of the disc used in each case was 6.35 mm.

Salmonella gallinarium = assay: standard disc-plate assay; conditions: conc 0.1 mg/ml; disc 6.35 mm
Method: as §1

Proteus vulgaris = assay: standard disc-plate assay; conditions: conc 0.1 mg/ml; disc 6.35 mm; ^b overgrowth: factors A, C, E, F, G
Method: as §1

Mycobacterium avium = assay: standard disc-plate assay; conditions: conc 0.1 mg/ml; disc 6.35 mm; ^b overgrowth: factor F
Method: as §1

Serratia marcescens = assay: standard disc-plate assay; conditions: conc 0.1 mg/ml; disc 6.35 mm; ^b overgrowth: factor C
Method: as §1

Pseudomonas solanacearum = conditions: conc 0.1 mg/ml; disc 6.35 mm; ^b overgrowth: factor F
Method: as §1

| SMILES | Zone Diameters (Pseudomonas aeruginosa) | Zone Diameters (Salmonella gallinarium) | Zone Diameters (Proteus vulgaris) | Zone Diameters (Mycobacterium avium) | Zone Diameters (Serratia marcescens) | Zone Diameters (Pseudomonas solanacearum) |
| --- | --- | --- | --- | --- | --- | --- |
| [C-]#[N+]C(=CC1=C[C@@H](O)[C@H](O)CC1)C(=CC1CCC(O)CC1)[N+]#[C-] (relative stereo) [Factor C] | tr |  |  |  |  |  |
| O=CNC=Cc1ccc(O)cc1 [Factor B] | -- | -- | -- | -- | -- | -- |
| [C-]#[N+]C(=CC1CCC(OC(=O)C=C(C)C)CC1)C(=CC1(OC(C)=O)C=CC(=O)CC1)[N+]#[C-] (stereo not drawn) [Factor F] | tr |  |  |  | tr |  |
